# Laboratory results taken from PubChem BioAssay (NCATS).
# Several values for one entry are separate records, joined by “and”; a condition that tells them apart may be missing. Equal entries are not always repeated. The shares of active, inactive and inconclusive entries below differ from those in the screen. Potencies of inconclusive entries are doubtful fits and often do not repeat. The source holds several records for some structures; these can differ, active in one and inactive in another. Activity calls are given as the source filed them. Calls come from the whole dose curve; as a rule, active = well fitted inhibition curve with a large enough effect; inconclusive = small, poorly fitted or top-dose-only effect; inactive = flat fitted curve, though single readings scatter.
# Biological target: Ubiquitin carboxyl-terminal hydrolase 1 (Homo sapiens) (UniProt O94782)
# Assay: Inhibitors of USP1/UAF1: Pilot qHTS (AID 504865);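 note: rhodamine fluorescence freed from ubiquitin-rhodamine substrate followed over time; nearly all actives have a fitted effect of over 35% in size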; for activity change, negative = inhibition: top concentration of the series differs between compounds
# Conditions: purified USP1/UAF1, Ub-rhodamine cleavage fluorescence; series mostly up to 114 µM; activity change, negative = inhibition: at the top concentration
# In short: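 Enzyme-free wells gave the negative control, while test wells held 1nM USP1/UAF1 preincubated with compound for 15 min at room temperature. Ub-Rho at 150nM final started the reaction, and fluorescence at 480/540 nm was recorded kinetically.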
# % is set by controls: 0 for no effect and ±100 for the full control effect; potency is the fitted concentration of half-maximal effect; tags give direction and shape of the fitted curve.
# UniProt O94782, sequence (O94782 whole entry, looked up): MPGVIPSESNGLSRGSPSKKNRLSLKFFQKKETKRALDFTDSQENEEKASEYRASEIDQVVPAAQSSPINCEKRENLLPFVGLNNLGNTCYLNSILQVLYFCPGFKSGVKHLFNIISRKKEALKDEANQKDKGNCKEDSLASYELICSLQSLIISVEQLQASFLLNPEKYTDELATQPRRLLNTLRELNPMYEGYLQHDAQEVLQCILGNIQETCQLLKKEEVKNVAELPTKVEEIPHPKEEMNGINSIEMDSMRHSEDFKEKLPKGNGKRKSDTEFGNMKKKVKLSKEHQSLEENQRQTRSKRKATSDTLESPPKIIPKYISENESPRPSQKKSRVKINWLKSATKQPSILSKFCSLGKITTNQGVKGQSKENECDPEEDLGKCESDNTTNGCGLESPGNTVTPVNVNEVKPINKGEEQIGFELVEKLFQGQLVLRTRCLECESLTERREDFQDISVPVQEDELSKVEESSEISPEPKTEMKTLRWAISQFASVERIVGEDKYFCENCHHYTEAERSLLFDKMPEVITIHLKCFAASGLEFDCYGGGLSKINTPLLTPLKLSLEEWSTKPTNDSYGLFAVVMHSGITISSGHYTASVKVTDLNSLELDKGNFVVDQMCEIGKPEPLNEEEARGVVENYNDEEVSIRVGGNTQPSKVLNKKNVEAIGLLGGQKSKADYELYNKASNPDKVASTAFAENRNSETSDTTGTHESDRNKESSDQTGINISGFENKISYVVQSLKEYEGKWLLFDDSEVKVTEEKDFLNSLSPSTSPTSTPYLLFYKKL
Structure (SMILES),Potency,"activity change, negative = inhibition"
Nc1ccc(O)c(C(=O)O)c1,active: 39.8 µM and active: 11.2 µM,–
CC(C)Cc1ccc(C(C)C(=O)O)cc1 (stereo unspecified),inactive,–
CN1CCC(=C2c3ccccc3CCc3sccc32)CC1,inactive,–
CCCC(=O)OC[C@@H](OC(=O)CCC)[C@@H](OC(=O)CCC)[C@H](Cn1c2nc(=O)[nH]c(=O)c-2nc2cc(C)c(C)cc21)OC(=O)CCC,active: 39.8 µM,–
CNCCCCOc1ccccc1Cc1ccccc1,"inconclusive: 39.8 µM [inhibitor, full curve, poor fit]",–
Nc1ccc(N=Nc2ccccc2)c(N)n1,"inconclusive: 56.2 µM [inhibitor, partial curve, poor fit] and inconclusive: 14.1 µM [inhibitor, partial curve] and inconclusive: 50.1 µM [inhibitor, partial curve]",–
C=C(c1ccc(C(=O)O)cc1)c1cc2c(cc1C)C(C)(C)CCC2(C)C,active: 22.4 µM,–
NO,–,inactive: -6.12%
O=C1CCc2ccc(OCCCCN3CCN(c4cccc(Cl)c4Cl)CC3)cc2N1,"inconclusive: 39.8 µM [inhibitor, partial curve]",–
COc1ccc2c3c1OC1C[C@@H](O)C=C[C@@]31CCN(C)C2 (stereo partly specified),inactive,–
c1ccc2sc(SSc3nc4ccccc4s3)nc2c1,–,inactive: -5%
CC(C)c1ccc2c(c1)c(SC(C)(C)C)c(CC(C)(C)C(=O)O)n2Cc1ccc(Cl)cc1,active: 25.1 µM and active: 50.1 µM,–
Nc1ccc(C(=O)Oc2ccccc2)c(O)c1,"inconclusive: 44.7 µM [inhibitor, full curve, poor fit]",–
CC1=C(C)C(=O)C(C(CCCCCC(=O)O)c2ccccc2)=C(C)C1=O (stereo unspecified),"inconclusive: 89.1 µM [inhibitor, partial curve, poor fit]",–
Cc1ccc(C)c(OCCCC(C)(C)C(=O)O)c1,inactive,–
CCCCCCCCCCCC(=O)[O][Sn]([CH2]CCC)([CH2]CCC)[O]C(=O)CCCCCCCCCCC,"inconclusive: 56.2 µM [inhibitor, partial curve, poor fit]",–

Structure (SMILES),Potency,"activity change, negative = inhibition"
O=C(O)c1ccccc1Nc1cccc(C(F)(F)F)c1,inactive,–
COc1cc(NC(C)CCCN)c2ncccc2c1 (stereo unspecified),active: 39.8 µM,–
COC(=O)C1=C(C)NC(C)=C(C(=O)OCC(C)C)C1c1ccccc1[N+](=O)[O-] (stereo unspecified),"inconclusive: 89.1 µM [inhibitor, partial curve, poor fit]",–
CCCCCCOc1ccccc1C(N)=O,"inconclusive: 56.2 µM [inhibitor, partial curve, poor fit]",–
Cc1c(C)n(Cc2ccccc2)c2ccc(C(=O)OCCN(C)C)cc12,"inconclusive: 56.2 µM [inhibitor, partial curve, poor fit]",–
O=c1[nH]c2ccccc2n1CCCN1CCN(C(c2ccccc2)c2ccccc2)CC1,"inconclusive: 44.7 µM [inhibitor, partial curve]",–
CCC(=C(CC)c1ccc(O)cc1)c1ccc(O)cc1,"inconclusive: 17.8 µM [inhibitor, partial curve, poor fit]",–
CC(C)c1ccc2oc3nc(N)c(C(=O)O)cc3c(=O)c2c1,"inconclusive: 56.2 µM [inhibitor, partial curve]",–
CCCCN(CCCC)CCC(O)c1cc2c(Cl)cc(Cl)cc2c2cc(C(F)(F)F)ccc12 (stereo unspecified),"inconclusive: 35.5 µM [inhibitor, single point]",–
c1ccc2c(Cc3c[nH]c4ccccc34)c[nH]c2c1,"inconclusive: 56.2 µM [inhibitor, partial curve, poor fit]",–
Nc1cc(-c2ccncc2)c[nH]c1=O,"inconclusive: 35.5 µM [inhibitor, partial curve] and inconclusive: 89.1 µM [inhibitor, partial curve, poor fit]",–
O=C1CN(/N=C/c2ccc([N+](=O)[O-])o2)C(=O)N1,active: 50.1 µM,–
COc1ccc(-c2cc(=S)ss2)cc1,"inconclusive: 56.2 µM [inhibitor, partial curve, poor fit]",–
CCCc1nc2c(C)cc(-c3nc4ccccc4n3C)cc2n1Cc1ccc(-c2ccccc2C(=O)O)cc1,active: 50.1 µM,–
O=C(OCc1ccccc1)c1ccc(O)cc1,"inconclusive: 79.4 µM [inhibitor, partial curve, poor fit]",–
